Data: the supplement of paper PMC3334620
Whole data set: some 33,000 sequences, median “E-score (-0.5 to 0.5)” near -0.011, cut for the highest 2% near 0.28. This is one part of the list.

Biological target: T1, Gcr1 (UniProt P07261)
T1 sequence: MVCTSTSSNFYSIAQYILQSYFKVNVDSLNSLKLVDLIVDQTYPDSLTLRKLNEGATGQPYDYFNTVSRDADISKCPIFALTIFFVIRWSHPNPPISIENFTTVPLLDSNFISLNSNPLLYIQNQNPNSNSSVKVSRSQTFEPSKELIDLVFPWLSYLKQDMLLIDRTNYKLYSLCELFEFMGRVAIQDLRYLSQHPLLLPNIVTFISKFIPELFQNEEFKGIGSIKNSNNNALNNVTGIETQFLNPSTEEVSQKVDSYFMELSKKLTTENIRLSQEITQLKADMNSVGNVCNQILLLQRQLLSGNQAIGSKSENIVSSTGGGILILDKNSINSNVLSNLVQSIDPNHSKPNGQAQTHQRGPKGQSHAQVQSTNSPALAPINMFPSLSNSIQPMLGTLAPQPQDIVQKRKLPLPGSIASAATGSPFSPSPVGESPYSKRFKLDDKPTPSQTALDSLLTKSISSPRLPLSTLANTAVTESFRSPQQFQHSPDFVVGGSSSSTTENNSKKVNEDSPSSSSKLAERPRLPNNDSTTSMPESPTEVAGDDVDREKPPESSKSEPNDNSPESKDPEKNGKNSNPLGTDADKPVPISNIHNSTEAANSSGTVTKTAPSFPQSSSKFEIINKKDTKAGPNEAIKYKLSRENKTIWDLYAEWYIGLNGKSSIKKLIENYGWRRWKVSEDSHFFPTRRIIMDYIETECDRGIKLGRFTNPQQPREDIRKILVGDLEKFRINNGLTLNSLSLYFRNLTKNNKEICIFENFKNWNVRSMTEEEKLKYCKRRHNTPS
Assay: PBM E-score (8-mer binding enrichment) (E-score (-0.5 to 0.5)); higher = stronger / more preferred TF binding; most listed sequences are background and not binding sites
Settings: protein concentration: 100 nM; construct: GST-full length
How it was run: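 Yeast transcription factors, full-length or as DNA-binding domains, were expressed with a GST tag using PURExpress in vitro transcription/translation. At about 100-200 nM they were applied to universal all-10-mer Agilent arrays, double-stranded by primer extension on fresh or once-stripped slides. Fluorescent anti-GST detected bound protein, and masliner normalised the scans. E-scores for ungapped eight-base words, pooled with reverse complements, came from the Universal PBM Analysis Suite.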

| Sequence | PBM E-score |
| --- | --- |
| AGATGGTG | 0.00702 |
| ATTGAAAT | 0.0928 |
| ATTGCAGG | -0.124 |
| CGGTTGGA | 0.0351 |
| AACAAGCA | -0.00635 |
| CCGCTTCG | 0.0926 |
| AGTATCAA | 0.00312 |
| TATGTAAA | -0.00541 |
| ATCATCAG | 0.0107 |
| CCGGCGCG | -0.112 |
| ATCGCGGA | 0.04 |
| AGCCTTTA | -0.00701 |
| GTGCGAAC | -0.117 |
| CTACAGTC | -0.164 |
| ACCACTCC | 0.0934 |
| ACAGGTAT | 0.163 |
| AGAAGATG | 0.256 |
| CGCGTACC | -0.108 |
| TACGACAA | 0.23 |
| CCCCGTGC | -0.116 |
| CCTTTATA | -0.0704 |
| ACATAACG | -0.167 |
| ACGATAGA | 0.0112 |
| ACGCACGT | -0.0538 |
| AAAAGAAT | 0.174 |

| Sequence | PBM E-score |
| --- | --- |
| GACGCGAA | 0.088 |
| CCATGTTC | -0.0313 |
| AGATCCGG | 0.0544 |
| GTTTGACA | -0.0418 |
| TGAAAGAA | -0.0893 |
| CCCGCCGC | 0.132 |
| ACCTTTTC | -0.0349 |
| TCTAAAAA | 0.106 |
| CTGCAGTA | -0.187 |
| CCTCCACG | -0.179 |
| ATTTGCGA | -0.0325 |
| CATCACCA | -0.0237 |
| CGGGTAGA | -0.0235 |
| AAGGGGAG | -0.0926 |
| CTGGGGCC | 0.0364 |
| AAACAAGT | 0.137 |
| ACTACCGG | 0.00365 |
| GCAATGGA | -0.146 |
| GTTAAACA | 0.0589 |
| CGCTAATA | -0.0086 |
| TCGCAACA | -0.134 |
| ATTGACCA | 0.0202 |
| GATTAGCA | 0.101 |
| CTGCCTCA | -0.0321 |
| GATGCCCC | 0.248 |

| Sequence | PBM E-score |
| --- | --- |
| AAGTGGCA | 0.238 |
| AGCCCCGC | 0.00154 |
| CTCTCGTA | -0.0764 |
| ACCACGTC | -0.253 |
| AGCAGTAC | -0.0971 |
| CTGACCAA | 0.0387 |
| AGCAACCT | 0.316 |
| GGGGAACC | 0.161 |
| TGGTCACA | -0.0023 |
| ACCGTGAT | 0.0747 |
| ACCGGGTG | 0.0199 |
| ACCTGACG | -0.109 |
| GCACCCCC | 0.0067 |
| CCAAATCG | 0.00834 |
| CCTCAGAC | -0.19 |
| GGGGTACA | -0.0231 |
| ACAATACC | 0.00823 |
| AACAGGTG | 0.048 |
| GCAATTCC | -0.0456 |
| ACCACATC | 0.0684 |
| AACTTTGG | 0.154 |
| ATGTTGAG | -0.119 |
| CTCAAACA | -0.0199 |
| TAGGCCCA | -0.139 |
| ACTGCCCG | -0.203 |

| Sequence | PBM E-score |
| --- | --- |
| GTTGACTA | 0.0209 |
| GCCTTGGA | -0.159 |
| AACTCTCT | -0.185 |
| ACATGTAA | 0.087 |
| AAAGTAGG | 0.214 |
| AGAGGCTG | 0.206 |
| ACGTCCCT | -0.188 |
| ACGATAAA | -0.0322 |
| ATATCTGC | -0.0191 |
| ATCTAGCA | 0.1 |
| GGCGCTTA | 0.0941 |
| ATATTAAT | 0.234 |
| CCTTGATA | -0.0119 |
| ATTGCACC | 0.00578 |
| TAAATTAA | 0.0451 |
| AGCGCTTA | -0.14 |
| ATGTGAAC | -0.0321 |
| ACGACAAC | 0.0698 |
| AGAGCCAG | -0.211 |
| AAATCGTC | -0.267 |
| ACCACAGA | 0.0112 |
| ATATGACG | -0.00377 |
| CATCTCGG | -0.00481 |
| ACTGCTTA | 0.178 |
| CACCATTA | 0.0631 |

| Sequence | PBM E-score |
| --- | --- |
| ATGAAAAG | -0.0698 |
| CTCTAGAC | -0.245 |
| ACATACTA | -0.0008 |
| AGCCGCAT | 0.0509 |
| ACCGCGGG | -0.0566 |
| CTAAAGAA | 0.0847 |
| AACGCTTC | 0.148 |
| AACCACCA | 0.135 |
| GCGCTGGA | 0.109 |
| TATTGCCA | 0.00643 |
| ATTCGCTC | -0.0957 |
| CGAAGTCA | 0.0729 |
| GCTAATCA | 0.0571 |
| AAGATGGA | 0.146 |
| GCTGCCCA | 0.188 |
| AGCGTTGG | -0.0326 |
| GAGCACTA | -0.237 |
| ATCGCAAA | 0.0413 |
| AAGAGATA | -0.00992 |
| ATTCGTAC | 0.0494 |
| TACAATCA | 0.0182 |
| AAATGTAG | 0.0745 |
| GATGTTCC | 0.0105 |
| ACAGCTCC | -0.245 |
| ACGTCAAC | -0.0218 |

| Sequence | PBM E-score |
| --- | --- |
| AACGAAGG | -0.298 |
| CTTCAGTC | -0.00112 |
| TCTTCGCA | -0.0271 |
| TACTCCAA | 0.0259 |
| GTCGCAGA | -0.00552 |
| AATCTTGT | 0.0867 |
| ACCCTCCC | 0.114 |
| CCATTTGA | -0.0906 |
| CGTGCTAA | -0.152 |
| GATCGACA | -0.177 |
| TCCAAGGA | 0.0809 |
| AGTCTAGA | 0.0415 |
| ATTGAGTG | 0.0775 |
| GATCAGGC | -0.144 |
| CAGACATA | -0.00288 |
| CCGCGGAG | -0.0631 |
| CCTTCAGC | -0.158 |
| GTCTTCAA | 0.00898 |
| ATACATCA | 0.0931 |
| AAACGGCA | 0.0709 |
| ACTAGCGA | -0.139 |
| AATTCGCA | 0.0903 |
| CTAACACC | -0.192 |
| CGAGCTCG | -0.235 |
| GGCGTAGA | 5e-05 |

| Sequence | PBM E-score |
| --- | --- |
| GGATCCAC | 0.302 |
| GATGCCGC | 0.267 |
| CAGAGGTA | 0.0281 |
| GGGCTCAA | -0.0416 |
| ATACTCGC | 0.0551 |
| CTAGAATA | 0.14 |
| GACACTAC | -0.0247 |
| CGCGTAGC | -0.0646 |
| CCCTACGG | 0.0744 |
| GATCACGA | -0.136 |
| AATTCCAC | 0.191 |
| AATGATAA | 0.147 |
| ACACTCCT | -0.0983 |
| GGCCAACC | -0.0896 |
| TATACGAA | 0.259 |
| ATTTAGTA | 0.228 |
| GGATTAAA | 0.137 |
| GCGGTTGA | -0.163 |
| GGCCAGAC | -0.097 |
| GCGATACC | -0.117 |
| AGAACTGA | 0.0569 |
| CCTTAGCA | 0.131 |
